# Source: the supplement of paper PMC8728848
# The list shows a part of the results.
# What was measured:
# Test in all cases: glycan array binding signal (z-score within array); higher = stronger binding
# Conditions in all cases: glycan notation: IUPAC condensed, linker removed
# [1] = molecular target: Gal(b1-3)GlcNAc(b1-6)[Gal(b1-3)]GalNAc
# Outline: (§1)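 Arrays were curated from the Consortium for Functional Glycomics database, 3228 in total, and kept only where the protein sequence was available. Binding is expressed as a within-array Z-score. This score was averaged across arrays of the same protein sequence at different concentrations or buffers and across linkers, and negative values can be read as non-binding.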
# [2] = molecular target: Gal(b1-3)GlcNAc6S
# Outline: as §1
# [3] = molecular target: Gal(b1-3)[Fuc(a1-4)]GlcNAc
# Outline: as §1
# [4] = molecular target: Gal(b1-3)[Fuc(a1-4)]GlcNAc(b1-2)Man
# Outline: as §1
# [5] = molecular target: Gal(b1-3)[Fuc(a1-4)]GlcNAc(b1-2)Man(a1-3)[Gal(b1-3)[Fuc(a1-4)]GlcNAc(b1-2)Man(a1-6)]Man(b1-4)GlcNAc(b1-4)[Fuc(a1-6)]GlcNAc
# Outline: as §1
# [6] = molecular target: Gal(b1-3)[Fuc(a1-4)]GlcNAc(b1-3)Gal(b1-3)[Fuc(a1-4)]GlcNAc
# Outline: as §1
# [7] = molecular target: Gal(b1-3)[Fuc(a1-4)]GlcNAc(b1-3)Gal(b1-4)[Fuc(a1-3)]GlcNAc
# Outline: as §1
# [8] = molecular target: Gal(b1-3)[Fuc(a1-4)]GlcNAc(b1-6)GalNAc
# Outline: as §1
# [9] = molecular target: Gal(b1-3)[GlcNAc(b1-6)]GalNAc
# Outline: as §1
# [10] = molecular target: Gal(b1-3)[Neu5Ac(a2-6)]GalNAc
# Outline: as §1
# [11] = molecular target: Gal(b1-3)[Neu5Ac(a2-6)]GlcNAc(b1-4)Gal(b1-4)Glc
# Outline: as §1
# [12] = molecular target: Gal(b1-3)[Neu5Ac(b2-6)]GalNAc
# Outline: as §1
# [13] = molecular target: Gal(b1-4)Gal
# Outline: as §1
# [14] = molecular target: Gal(b1-4)GalNAc(a1-3)[Fuc(a1-2)]Gal(b1-4)GlcNAc
# Outline: as §1
# [15] = molecular target: Gal(b1-4)GalNAc(b1-3)[Fuc(a1-2)]Gal(b1-4)GlcNAc
# Outline: as §1
# [16] = molecular target: Gal(b1-4)Glc
# Outline: as §1
# [17] = molecular target: Gal(b1-4)Glc6S
# Outline: as §1
# [18] = molecular target: Gal(b1-4)GlcNAc
# Outline: as §1
# [19] = molecular target: Gal(b1-4)GlcNAc(a1-6)Gal(b1-4)GlcNAc
# Outline: as §1
# [20] = molecular target: Gal(b1-4)GlcNAc(b1-2)Man
# Outline: as §1
# [21] = molecular target: Gal(b1-4)GlcNAc(b1-2)Man(a1-3)Man(b1-4)GlcNAc(b1-4)GlcNAc
# Outline: as §1
# [22] = molecular target: Gal(b1-4)GlcNAc(b1-2)Man(a1-3)[Gal(b1-4)GlcNAc(b1-2)Man(a1-6)]Man(b1-4)GlcNAc(b1-4)GlcNAc
# Outline: as §1
# [23] = molecular target: Gal(b1-4)GlcNAc(b1-2)Man(a1-3)[Gal(b1-4)GlcNAc(b1-2)Man(a1-6)]Man(b1-4)GlcNAc(b1-4)[Fuc(a1-6)]GlcNAc
# Outline: as §1
# [24] = molecular target: Gal(b1-4)GlcNAc(b1-2)Man(a1-3)[Gal(b1-4)GlcNAc(b1-2)Man(a1-6)][Gal(b1-4)GlcNAc(b1-4)]Man(b1-4)GlcNAc(b1-4)[Fuc(a1-6)]GlcNAc
# Outline: as §1
# [25] = molecular target: Gal(b1-4)GlcNAc(b1-2)Man(a1-3)[Gal(b1-4)GlcNAc(b1-2)Man(a1-6)][GlcNAc(b1-4)]Man(b1-4)GlcNAc(b1-4)[Fuc(a1-6)]GlcNAc
# Outline: as §1
# [26] = molecular target: Gal(b1-4)GlcNAc(b1-2)Man(a1-3)[GlcNAc(b1-2)Man(a1-6)]Man(b1-4)GlcNAc(b1-4)GlcNAc
# Outline: as §1
# [27] = molecular target: Gal(b1-4)GlcNAc(b1-2)Man(a1-3)[GlcNAc(b1-4)][Gal(b1-4)GlcNAc(b1-2)Man(a1-6)]Man(b1-4)GlcNAc(b1-4)GlcNAc
# Outline: as §1
# [28] = molecular target: Gal(b1-4)GlcNAc(b1-2)Man(a1-3)[Man(a1-6)]Man(b1-4)GlcNAc(b1-4)GlcNAc
# Outline: as §1
# [29] = molecular target: Gal(b1-4)GlcNAc(b1-2)Man(a1-6)Man(b1-4)GlcNAc(b1-4)GlcNAc
# Outline: as §1
# [30] = molecular target: Gal(b1-4)GlcNAc(b1-2)Man(a1-6)[GlcNAc(b1-2)Man(a1-3)]Man(b1-4)GlcNAc(b1-4)GlcNAc
# Outline: as §1
# [31] = molecular target: Gal(b1-4)GlcNAc(b1-2)Man(a1-6)[Man(a1-3)]Man(b1-4)GlcNAc(b1-4)GlcNAc
# Outline: as §1
# [32] = molecular target: Gal(b1-4)GlcNAc(b1-2)[Gal(b1-4)GlcNAc(b1-4)]Man(a1-3)[Gal(b1-4)GlcNAc(b1-2)Man(a1-6)]Man(b1-4)GlcNAc(b1-4)GlcNAc
# Outline: as §1
# [33] = molecular target: Gal(b1-4)GlcNAc(b1-2)[Gal(b1-4)GlcNAc(b1-4)]Man(a1-3)[Gal(b1-4)GlcNAc(b1-2)[Gal(b1-4)GlcNAc(b1-6)]Man(a1-6)]Man(b1-4)GlcNAc(b1-4)GlcNAc
# Outline: as §1
# [34] = molecular target: Gal(b1-4)GlcNAc(b1-2)[Gal(b1-4)GlcNAc(b1-4)]Man(a1-3)[GlcNAc(b1-4)][Gal(b1-4)GlcNAc(b1-2)Man(a1-6)]Man(b1-4)GlcNAc(b1-4)GlcNAc
# Outline: as §1
# [35] = molecular target: Gal(b1-4)GlcNAc(b1-2)[Gal(b1-4)GlcNAc(b1-4)]Man(a1-3)[GlcNAc(b1-4)][Gal(b1-4)GlcNAc(b1-2)[Gal(b1-4)GlcNAc(b1-6)]Man(a1-6)]Man(b1-4)GlcNAc(b1-4)GlcNAc
# Outline: as §1
# [36] = molecular target: Gal(b1-4)GlcNAc(b1-2)[Gal(b1-4)GlcNAc(b1-6)]Man(a1-6)[Gal(b1-4)GlcNAc(b1-2)Man(a1-3)]Man(b1-4)GlcNAc(b1-4)GlcNAc
# Outline: as §1
# [37] = molecular target: Gal(b1-4)GlcNAc(b1-2)[Gal(b1-4)GlcNAc(b1-6)]Man(a1-6)[Gal(b1-4)GlcNAc(b1-2)Man(a1-3)]Man(b1-4)GlcNAc(b1-4)[Fuc(a1-6)]GlcNAc
# Outline: as §1
# [38] = molecular target: Gal(b1-4)GlcNAc(b1-2)[Gal(b1-4)GlcNAc(b1-6)]Man(a1-6)[GlcNAc(b1-4)][Gal(b1-4)GlcNAc(b1-2)Man(a1-3)]Man(b1-4)GlcNAc(b1-4)GlcNAc
# Outline: as §1
# [39] = molecular target: Gal(b1-4)GlcNAc(b1-2)[Gal(b1-4)GlcNAc(b1-6)]Man(a1-6)[GlcNAc(b1-4)][Gal(b1-4)GlcNAc(b1-2)[Gal(b1-4)GlcNAc(b1-4)]Man(a1-3)]Man(b1-4)GlcNAc(b1-4)[Fuc(a1-6)]GlcNAc
# Outline: as §1
# [40] = molecular target: Gal(b1-4)GlcNAc(b1-3)Gal(b1-3)GalNAc
# Outline: as §1
# [41] = molecular target: Gal(b1-4)GlcNAc(b1-3)Gal(b1-3)GlcNAc
# Outline: as §1
# [42] = molecular target: Gal(b1-4)GlcNAc(b1-3)Gal(b1-4)Glc
# Outline: as §1
# [43] = molecular target: Gal(b1-4)GlcNAc(b1-3)Gal(b1-4)GlcNAc
# Outline: as §1
# [44] = molecular target: Gal(b1-4)GlcNAc(b1-3)Gal(b1-4)GlcNAc(b1-2)Man(a1-3)[Gal(b1-4)GlcNAc(b1-3)Gal(b1-4)GlcNAc(b1-2)Man(a1-6)]Man(b1-4)GlcNAc(b1-4)GlcNAc
# Outline: as §1
# [45] = molecular target: Gal(b1-4)GlcNAc(b1-3)Gal(b1-4)GlcNAc(b1-2)Man(a1-3)[Gal(b1-4)GlcNAc(b1-3)Gal(b1-4)GlcNAc(b1-2)Man(a1-6)]Man(b1-4)GlcNAc(b1-4)[Fuc(a1-6)]GlcNAc
# Outline: as §1
binder,measurement,setting,value
Microvirin-2 (Microcystis aeruginosa) (protein) MPNFSHTCSSINYDPDSTILSAECQARDGEWLPTELRLSDHIGNIDGELQFGDQNFQETCQDCHLEFGDGEQSVWLVCTCQTMDGEWKSTQILLDSQIDNNDSQLEIGGSMPNFSHTCSSINYDPDSTILSAECQARDGEWLPTELRLSDHIGNIDGELQFGDQNFQETCQDCHLEFGDGEQSVWLVCTCQTMDGEWKSTQILLDSQIDNNDSQLEIG,glycan array binding signal (z-score),[1],-0.07
same,glycan array binding signal (z-score),[2],-0.129
same,glycan array binding signal (z-score),[3],-0.137
same,glycan array binding signal (z-score),[4],-0.143
same,glycan array binding signal (z-score),[5],0.648
same,glycan array binding signal (z-score),[6],-0.142
same,glycan array binding signal (z-score),[7],-0.141
same,glycan array binding signal (z-score),[8],-0.126
same,glycan array binding signal (z-score),[9],-0.132
same,glycan array binding signal (z-score),[10],-0.14
same,glycan array binding signal (z-score),[11],-0.147
same,glycan array binding signal (z-score),[12],-0.142
same,glycan array binding signal (z-score),[13],-0.143
same,glycan array binding signal (z-score),[14],-0.136
same,glycan array binding signal (z-score),[15],-0.138
same,glycan array binding signal (z-score),[16],-0.136
same,glycan array binding signal (z-score),[17],-0.134
same,glycan array binding signal (z-score),[18],-0.131
same,glycan array binding signal (z-score),[19],-0.136
same,glycan array binding signal (z-score),[20],-0.121
same,glycan array binding signal (z-score),[21],-0.134
same,glycan array binding signal (z-score),[22],-0.125
same,glycan array binding signal (z-score),[23],-0.134
same,glycan array binding signal (z-score),[24],-0.125
same,glycan array binding signal (z-score),[25],-0.146
same,glycan array binding signal (z-score),[26],-0.135
same,glycan array binding signal (z-score),[27],-0.145
same,glycan array binding signal (z-score),[28],-0.116
same,glycan array binding signal (z-score),[29],-0.128
same,glycan array binding signal (z-score),[30],-0.136
same,glycan array binding signal (z-score),[31],-0.141
same,glycan array binding signal (z-score),[32],-0.131
same,glycan array binding signal (z-score),[33],-0.135
same,glycan array binding signal (z-score),[34],-0.133
same,glycan array binding signal (z-score),[35],-0.138
same,glycan array binding signal (z-score),[36],-0.137
same,glycan array binding signal (z-score),[37],-0.131
same,glycan array binding signal (z-score),[38],-0.14
same,glycan array binding signal (z-score),[39],-0.132
same,glycan array binding signal (z-score),[40],-0.14
same,glycan array binding signal (z-score),[41],-0.146
same,glycan array binding signal (z-score),[42],-0.138
same,glycan array binding signal (z-score),[43],-0.141
same,glycan array binding signal (z-score),[44],-0.011
same,glycan array binding signal (z-score),[45],0.022
